Experimental data reported in the supplement of paper PMC4967469.
The IC50 comes from the fitted curve, where viability falls to half of the control; fits outside the tested doses are given as limits. AUC, from the same fit, is the share of area under the viability curve across the 256-fold dose range; the more sensitive the line, the further below 1. For some assays here: Any top dose called inferred is not printed in the source and was worked back from the curve model.

Assays:
Assay in all cases: Viability of human cancer cell lines after 72 h of drug (GDSC screen)
[1] = compound: Cc1ccc2nc(NCCN)c3ncc(C)n3c2c1 [BMS-345541]; details: top dose 16 µM
Procedure: (§1)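 Human cancer cell lines in 384-well plates, medium with 10% serum, drug for 72 h over a 256-fold dose range (nine 2-fold or five 4-fold steps up to the top dose). Adherent lines were fixed and stained with the nucleic acid dye Syto60, suspension lines read with resazurin; signal relative to control wells, capped at 0 and 100%. One two-parameter sigmoid per drug and line, fitted in a mixed model over all curves with the slope shared within a line.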

[2] = compound: O=C(O)c1ccc(-c2c[nH]c3ncc(-c4ccccc4)cc23)cc1C1CCCC1 [GSK-650394]; details: top dose 16 µM; top dose inferred
Procedure: as §1

[3] = compound: COc1cc(C(=O)NC2CCN(C)CC2)ccc1Nc1ncc2c(n1)N(C1CCCC1)C(C)CC(=O)N2C [NPK76-II-72-1]; details: top dose 10.24 µM; top dose inferred
Procedure: as §1

[4] = compound: COc1cc([C@@H]2c3cc4c(cc3[C@@H](O[C@@H]3O[C@@H]5CO[C@@H](C)O[C@H]5[C@H](O)[C@H]3O)[C@H]3COC(=O)[C@H]23)OCO4)cc(OC)c1O [Etoposide]; details: top dose 16 µM
Procedure: as §1

[5] = compound: COc1ccc(C(=O)CC2(O)C(=O)Nc3c(Cl)ccc(Cl)c32)cc1 [YK 4-279]; details: top dose 10 µM
Procedure: as §1

[6] = compound: NC(=O)Nc1cc(-c2cccc(F)c2)sc1C(=O)N[C@H]1CCCNC1 [AZD7762]; details: top dose 2 µM
Procedure: as §1

[7] = compound: C=C(c1ccc(C(=O)O)cc1)c1cc2c(cc1C)C(C)(C)CCC2(C)C [Bexarotene]; details: top dose 8 µM
Procedure: as §1

[8] = compound: Oc1nc(-c2ccc(C(F)(F)F)cc2)nc2c1CSCC2 [XAV 939]; details: top dose 5 µM; top dose inferred
Procedure: as §1

Cell Line | AUC [1] | IC50 [1] [µM] | AUC [2] | IC50 [2] [µM] | AUC [3] | IC50 [3] [µM] | AUC [4] | IC50 [4] [µM] | AUC [5] | IC50 [5] [µM] | AUC [6] | IC50 [6] [µM] | AUC [7] | IC50 [7] [µM] | AUC [8] | IC50 [8] [µM]
Hep 3B2_1-7 (liver, adherent) | 0.985 | > 16 | 0.74 | 4.84 | 0.912 | > 10.2 | 0.451 | 0.734 | 0.829 | 6.19 | 0.686 | 0.414 | 0.96 | > 8 | 0.957 | > 5
Hs633T (fibrosarcoma, adherent) | 0.904 | 14.4 | 0.64 | 2.26 | 0.964 | > 10.2 | 0.203 | 0.166 | 0.698 | 1.99 | 0.588 | 0.208 | 0.913 | 7.94 | 0.904 | 4.49
Hs683 (glioma, adherent) | 0.921 | > 16 | 0.781 | 6.73 | 0.904 | > 10.2 | 0.498 | 0.99 | 0.65 | 1.63 | 0.767 | 0.75 | 0.971 | > 8 | 0.987 | > 5
Hs766T (pancreas, adherent) | 0.976 | > 16 | 0.974 | > 16 | 0.984 | > 10.2 | 0.975 | > 16 | 0.876 | > 10 | 0.679 | 0.467 | 0.959 | > 8 | 0.977 | > 5
Hs939-T (melanoma, adherent) | 0.983 | > 16 | 0.978 | > 16 | 0.982 | > 10.2 | 0.77 | 6.67 | 0.799 | 5.33 | 0.71 | 0.521 | 0.922 | > 8 | 0.982 | > 5
Hs-578-T (breast, adherent) | 0.984 | > 16 | 0.96 | > 16 | 0.987 | > 10.2 | 0.987 | > 16 | 0.725 | 2.86 | 0.709 | 0.506 | 0.959 | > 8 | 0.977 | > 5
HuCCT1 (biliary tract, adherent) | 0.867 | > 16 | 0.873 | > 16 | 0.873 | > 10.2 | 0.602 | 1.97 | 0.686 | 2.22 | 0.754 | 0.746 | 0.891 | > 8 | 0.901 | > 5
HuO9 (osteosarcoma, adherent) | 0.849 | 14.1 | 0.984 | > 16 | 0.979 | > 10.2 | 0.507 | 1.04 | 0.753 | 3.66 | 0.613 | 0.265 | 0.98 | > 8 | 0.975 | > 5
